The source of these data is the supplement of paper PMC4604168 (melanoma cell lines).

The list shows a part of the results. Single values are uncertain, as repeats are few or missing.
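Also: cells treated in 1,536-well plates, then fixed and DAPI-stained, with nuclei counted from automated high-throughput microscope images.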

In the experiment the test system is SkMel30. The experiment can be described thus: cell count relative to DMSO control; melanoma cells; higher = more viable cells. The conditions noted are these: library dose: standard library concentration; 72 h.
The compound `COc1cc([C@@H]2c3cc4c(cc3[C@@H](O[C@@H]3O[C@@H]5CO[C@@H](C)O[C@H]5[C@H](O)[C@H]3O)[C@H]3COC(=O)[C@H]23)OCO4)cc(OC)c1O` [etoposide] + NC(=O)Nc1cc(-c2cccc(F)c2)sc1C(=O)N[C@H]1CCCNC1 [AZD7762] (first compound 0.1 µM, partner dose 0.1 µM) came in with a cell count of 65.7%.

`Cn1cnc2c(F)c(Nc3ccc(Br)cc3Cl)c(C(=O)NOCCO)cc21` [selumetinib] + CN(C)S(=O)(=O)c1ccc2c(c1)/C(=C/c1cc3c([nH]1)CCCC3)C(=O)N2 [SU6656] (first compound 0.075 µM, partner dose 2 µM) came in with a cell count of 66.7%.

In turn, `C[C@]1(O)C[C@@H](c2nc(-c3ccc4ccc(-c5ccccc5)nc4c3)c3c(N)nccn32)C1` + CO[C@@H]1[C@H](N(C)C(=O)c2ccccc2)C[C@H]2O[C@]1(C)n1c3ccccc3c3c4c(c5c6ccccc6n2c5c31)C(=O)NC4 [Midostaurin] (first compound 2 µM, partner dose 0.4 µM) had a cell count of 69.1%.

`Cn1cnc2c(F)c(Nc3ccc(Br)cc3Cl)c(C(=O)NOCCO)cc21` [selumetinib] + C[C@@H]1CCN(C(=O)CC#N)C[C@@H]1N(C)c1ncnc2[nH]ccc12 [CP690550] (first compound 0.075 µM, partner dose 5 µM) had a cell count of 74.5%.

As to `Cn1cnc2c(F)c(Nc3ccc(Br)cc3Cl)c(C(=O)NOCCO)cc21` [selumetinib] + OCCn1cc(-c2cnc3nnn(Cc4ccc5ncccc5c4)c3n2)cn1 [PF04217903] (first compound 0.075 µM, partner dose 5 µM), the cell count came out at 65.7%.

`CCN(CC)CCNC(=O)c1c(C)[nH]c(/C=C2\C(=O)Nc3ccc(F)cc32)c1C` [sunitinib] + CC1(C)NC(=O)N(c2ccc([N+](=O)[O-])c(C(F)(F)F)c2)C1=O [nilutamide] (first compound 2 µM, partner dose 5 µM): the cell count was 75.2%.

`Cn1cnc2c(F)c(Nc3ccc(Br)cc3Cl)c(C(=O)NOCCO)cc21` [selumetinib] + CO[C@@H]1[C@H](N(C)C(=O)c2ccccc2)C[C@H]2O[C@]1(C)n1c3ccccc3c3c4c(c5c6ccccc6n2c5c31)C(=O)NC4 [Midostaurin] (first compound 0.075 µM, partner dose 0.4 µM): the cell count amounted to 65.6%.

In the case of `COc1cc([C@@H]2c3cc4c(cc3[C@@H](O[C@@H]3O[C@@H]5CO[C@@H](C)O[C@H]5[C@H](O)[C@H]3O)[C@H]3COC(=O)[C@H]23)OCO4)cc(OC)c1O` [etoposide] + Cc1cc(N2CCOCC2)cc2[nH]c(-c3c(NC[C@@H](O)c4cccc(Cl)c4)cc[nH]c3=O)nc12 [BMS536924] (first compound 0.1 µM, partner dose 1 µM), the cell count is 98.8%.

In the case of `Cn1cnc2c(F)c(Nc3ccc(Br)cc3Cl)c(C(=O)NOCCO)cc21` [selumetinib] + C=CCn1c(=O)c2cnc(Nc3ccc(N4CCN(C)CC4)cc3)nc2n1-c1cccc(C(C)(C)O)n1 [MK1775] (first compound 0.075 µM, partner dose 0.1 µM), the cell count was found to be 52.6%.

For `COc1cc([C@@H]2c3cc4c(cc3[C@@H](O[C@@H]3O[C@@H]5CO[C@@H](C)O[C@H]5[C@H](O)[C@H]3O)[C@H]3COC(=O)[C@H]23)OCO4)cc(OC)c1O` [etoposide] + CO[C@@H]1[C@H](N(C)C(=O)c2ccccc2)C[C@H]2O[C@]1(C)n1c3ccccc3c3c4c(c5c6ccccc6n2c5c31)C(=O)NC4 [Midostaurin] (first compound 0.1 µM, partner dose 0.4 µM), the cell count is 79.6%.

Consider `CCN(CC)CCNC(=O)c1c(C)[nH]c(/C=C2\C(=O)Nc3ccc(F)cc32)c1C` [sunitinib] + C[C@@H]1CCN(C(=O)CC#N)C[C@@H]1N(C)c1ncnc2[nH]ccc12 [CP690550] (first compound 2 µM, partner dose 5 µM), for which the cell count is 68.6%.

With `COc1cc([C@@H]2c3cc4c(cc3[C@@H](O[C@@H]3O[C@@H]5CO[C@@H](C)O[C@H]5[C@H](O)[C@H]3O)[C@H]3COC(=O)[C@H]23)OCO4)cc(OC)c1O` [etoposide] + Nc1ccn([C@@H]2O[C@H](CO)[C@@H](O)C2(F)F)c(=O)n1 [gemcitabine] (first compound 0.1 µM, partner dose 0.002 µM), the cell count worked out at 89.4%.

With `COc1cc([C@@H]2c3cc4c(cc3[C@@H](O[C@@H]3O[C@@H]5CO[C@@H](C)O[C@H]5[C@H](O)[C@H]3O)[C@H]3COC(=O)[C@H]23)OCO4)cc(OC)c1O` [etoposide] + C=CCn1c(=O)c2cnc(Nc3ccc(N4CCN(C)CC4)cc3)nc2n1-c1cccc(C(C)(C)O)n1 [MK1775] (first compound 0.1 µM, partner dose 0.1 µM), the cell count is 81.2%.

In turn, `C[C@]1(O)C[C@@H](c2nc(-c3ccc4ccc(-c5ccccc5)nc4c3)c3c(N)nccn32)C1` + Cc1cc(N2CCOCC2)cc2[nH]c(-c3c(NC[C@@H](O)c4cccc(Cl)c4)cc[nH]c3=O)nc12 [BMS536924] (first compound 2 µM, partner dose 1 µM) returned a cell count of 77%.

As to `Cn1cnc2c(F)c(Nc3ccc(Br)cc3Cl)c(C(=O)NOCCO)cc21` [selumetinib] + O=C(CCCCCCC(=O)Nc1ccccc1)NO [vorinostat] (first compound 0.075 µM, partner dose 0.4 µM), the cell count is 72.3%.

The compound `Cn1cnc2c(F)c(Nc3ccc(Br)cc3Cl)c(C(=O)NOCCO)cc21` [selumetinib] + CC(C)(C)c1cnc(CSc2cnc(NC(=O)C3CCNCC3)s2)o1 [SNS-032] (first compound 0.075 µM, partner dose 0.05 µM) returned a cell count of 61.1%.

As for `COc1cc([C@@H]2c3cc4c(cc3[C@@H](O[C@@H]3O[C@@H]5CO[C@@H](C)O[C@H]5[C@H](O)[C@H]3O)[C@H]3COC(=O)[C@H]23)OCO4)cc(OC)c1O` [etoposide] + Cc1ccc(NC(=O)c2cccc(N(C)C)c2)cc1NC(=O)c1ccc(O)cc1 [ZM336372] (first compound 0.1 µM, partner dose 10 µM), the cell count is 71.2%.

Compound `Cn1cnc2c(F)c(Nc3ccc(Br)cc3Cl)c(C(=O)NOCCO)cc21` [selumetinib] + COc1cc2c(Oc3ccc4[nH]c(C)cc4c3F)ncnc2cc1OCCCN1CCCC1 [cediranib] (first compound 0.075 µM, partner dose 2 µM) showed a cell count of 77.8%.

In turn, `COc1cc([C@@H]2c3cc4c(cc3[C@@H](O[C@@H]3O[C@@H]5CO[C@@H](C)O[C@H]5[C@H](O)[C@H]3O)[C@H]3COC(=O)[C@H]23)OCO4)cc(OC)c1O` [etoposide] + CN(C)S(=O)(=O)c1ccc2c(c1)/C(=C/c1cc3c([nH]1)CCCC3)C(=O)N2 [SU6656] (first compound 0.1 µM, partner dose 2 µM) had a cell count of 99.1%.

In the case of `COc1cc([C@@H]2c3cc4c(cc3[C@@H](O[C@@H]3O[C@@H]5CO[C@@H](C)O[C@H]5[C@H](O)[C@H]3O)[C@H]3COC(=O)[C@H]23)OCO4)cc(OC)c1O` [etoposide] + CCCS(=O)(=O)Nc1ccc(F)c(C(=O)c2c[nH]c3ncc(Cl)cc23)c1F [PLX4720] (first compound 0.1 µM, partner dose 0.4 µM), the cell count is 75%.

On to `Cn1cnc2c(F)c(Nc3ccc(Br)cc3Cl)c(C(=O)NOCCO)cc21` [selumetinib] + CN(NC(=O)CC(=O)NN(C)C(=S)c1ccccc1)C(=S)c1ccccc1 [STA4783] (first compound 0.075 µM, partner dose 0.03 µM), for which the cell count stood at 57.3%.

Compound `CCN(CC)CCNC(=O)c1c(C)[nH]c(/C=C2\C(=O)Nc3ccc(F)cc32)c1C` [sunitinib] + O=C(CCCCCCC(=O)Nc1ccccc1)NO [vorinostat] (first compound 2 µM, partner dose 0.4 µM) had a cell count of 60.7%.

For `COc1cc([C@@H]2c3cc4c(cc3[C@@H](O[C@@H]3O[C@@H]5CO[C@@H](C)O[C@H]5[C@H](O)[C@H]3O)[C@H]3COC(=O)[C@H]23)OCO4)cc(OC)c1O` [etoposide] + C[C@@H]1CCN(C(=O)CC#N)C[C@@H]1N(C)c1ncnc2[nH]ccc12 [CP690550] (first compound 0.1 µM, partner dose 5 µM), the cell count worked out at 104%.

On to `CCN(CC)CCNC(=O)c1c(C)[nH]c(/C=C2\C(=O)Nc3ccc(F)cc32)c1C` [sunitinib] + COc1cc(Nc2ncc(F)c(Nc3ccc4c(n3)NC(=O)C(C)(C)O4)n2)cc(OC)c1OC [Tamatinib] (first compound 2 µM, partner dose 2 µM), for which the cell count came out at 80%.

Compound `COc1cc([C@@H]2c3cc4c(cc3[C@@H](O[C@@H]3O[C@@H]5CO[C@@H](C)O[C@H]5[C@H](O)[C@H]3O)[C@H]3COC(=O)[C@H]23)OCO4)cc(OC)c1O` [etoposide] + OCCn1cc(-c2cnc3nnn(Cc4ccc5ncccc5c4)c3n2)cn1 [PF04217903] (first compound 0.1 µM, partner dose 5 µM) displayed a cell count of 107%.

`C[C@]1(O)C[C@@H](c2nc(-c3ccc4ccc(-c5ccccc5)nc4c3)c3c(N)nccn32)C1` + CN(C)S(=O)(=O)c1ccc2c(c1)/C(=C/c1cc3c([nH]1)CCCC3)C(=O)N2 [SU6656] (first compound 2 µM, partner dose 2 µM) came in with a cell count of 63.6%.

`C[C@]1(O)C[C@@H](c2nc(-c3ccc4ccc(-c5ccccc5)nc4c3)c3c(N)nccn32)C1` + COc1cc2c(Oc3ccc4[nH]c(C)cc4c3F)ncnc2cc1OCCCN1CCCC1 [cediranib] (first compound 2 µM, partner dose 2 µM) came in with a cell count of 95.9%.
